Measurements from PubChem BioAssay AID488969 (Vanderbilt High Throughput Screening Facility, 2010).
Whole data set: some 110,000 compounds, median “z-score” near -0.1, cut for the highest 2% near 2. The list shows a part of the results.

molecular target: Metabotropic glutamate receptor 8 (Rattus norvegicus) (UniProt P70579); assay: rat mGluR8 modulators via GIRK flux, primary screen, cell-based, thallium flux, HTS (AID 488969); details: HEK293 rat mGluR8, GIRK (G protein-gated inwardly rectifying potassium channel) thallium flux, FluoZin2; at 10 µM; stronger effect = higher value; submaximal glutamate (EC20) added with thallium
UniProt P70579, sequence (P70579 whole entry, looked up): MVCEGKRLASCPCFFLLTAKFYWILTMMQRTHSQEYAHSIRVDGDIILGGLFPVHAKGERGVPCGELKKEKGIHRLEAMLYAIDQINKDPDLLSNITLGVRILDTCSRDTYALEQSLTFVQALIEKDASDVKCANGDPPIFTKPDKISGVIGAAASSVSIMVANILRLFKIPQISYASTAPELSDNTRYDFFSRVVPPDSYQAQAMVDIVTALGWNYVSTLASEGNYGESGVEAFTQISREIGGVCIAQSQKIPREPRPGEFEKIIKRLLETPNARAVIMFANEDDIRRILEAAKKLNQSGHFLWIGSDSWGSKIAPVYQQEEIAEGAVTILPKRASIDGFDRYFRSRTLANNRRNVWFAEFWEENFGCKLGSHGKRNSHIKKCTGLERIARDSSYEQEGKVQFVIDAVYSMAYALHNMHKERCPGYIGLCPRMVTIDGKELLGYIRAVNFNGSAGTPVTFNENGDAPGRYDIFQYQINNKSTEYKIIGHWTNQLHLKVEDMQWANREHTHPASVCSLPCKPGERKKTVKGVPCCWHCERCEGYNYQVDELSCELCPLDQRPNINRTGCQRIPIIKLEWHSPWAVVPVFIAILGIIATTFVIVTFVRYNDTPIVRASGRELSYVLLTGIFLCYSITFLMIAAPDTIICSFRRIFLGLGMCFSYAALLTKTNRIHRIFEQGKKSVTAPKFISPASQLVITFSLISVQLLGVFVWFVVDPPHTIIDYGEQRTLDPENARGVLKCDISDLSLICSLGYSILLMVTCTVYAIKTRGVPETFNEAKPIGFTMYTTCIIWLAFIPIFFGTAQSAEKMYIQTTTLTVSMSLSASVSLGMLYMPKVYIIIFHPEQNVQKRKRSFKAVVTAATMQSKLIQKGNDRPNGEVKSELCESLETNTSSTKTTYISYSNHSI

Compound	z-score
COc1cc(C(O)P(=O)(OC2CCCCC2)c2ccc(N(C)C)cc2)cc(OC)c1OC (stereo not given)	-0.302
Clc1ccc2c(N/N=C/c3ccc(Br)cc3)ccnc2c1	-0.258
CC(NC(=O)Cc1ccc(-c2ccccc2)cc1)c1ccccc1 (stereo not given)	-0.225
CCOC(=O)c1ccc(NC(=O)N2CCN(Cc3cccc(F)c3)CC2)cc1	-0.775
CN(C)c1ccc(C2N(c3ccc(Cl)cc3)C(=O)C3CCCN32)cc1 (stereo not given)	-0.129
Cc1ccc(S(=O)(=O)N(C)Cc2ccc(-c3nnc4n3CCC4)cc2)cc1	-1.14
NCCOc1ccccc1Cc1ccccc1	0.282
CCCCn1c(/N=C/c2ccc3c(c2)OCO3)nc2ccccc21	-0.738
Cc1nnc2n(-c3ccccc3)c(=O)c3c4c(sc3n12)COC(C(C)C)C4 (stereo not given)	-1.64
CN(CCC#N)C(=O)COC(=O)c1ccc(Cl)c(S(N)(=O)=O)c1	0.0421
COc1ccc(OC)c(C(O)c2coc3ccc(O)c(CN(C)C)c23)c1 (stereo not given)	0.238
Cc1[nH]c2ccccc2c1/C=N/Nc1nc(N2CCCCC2)nc(N2CCCCC2)n1	-0.185
Cc1cc(N2CCCCCC2)nc2ccc(F)cc12	-0.101
CCN(CC)CCN1C(=O)C(=O)/C(=C(/O)c2c(C)[nH]c(C(=O)OC)c2C)C1c1ccccc1 (stereo not given)	-0.0174
COc1ccc(C(=O)N(c2ccccc2)C2C=CS(=O)(=O)C2)cc1 (stereo not given)	-0.344
COc1ccc(OC)c(NC(=O)CCCN2C(=O)C3C4C=CC(C4)C3C2=O)c1 (stereo not given)	-0.267
COc1cccc(NC(=O)c2ccncc2)c1	-0.356
O=C1C2C3C=CC(C3)C2C(=O)N1CC1CCCO1 (stereo not given)	-0.163
COc1ccccc1OCCNS(=O)(=O)c1ccc2oc3ccccc3c2c1	1.18
CCCC(=O)Nc1ccc(C(=O)NN2C(=O)c3ccccc3C2=O)cc1	-0.194
N#Cc1c(-c2ccc(F)cc2)cc(-c2cccnc2)nc1N	-0.0757
COC(=O)c1cc(Br)c(=O)n(Cc2ccco2)c1	-0.845
CC1CCN(S(=O)(=O)c2ccc3ncn(CC(=O)N(C)Cc4ccccc4)c(=O)c3c2)CC1	-0.0738
CCCCC(=O)Nc1ccc(NC(=O)c2ccccc2OC)cn1	-0.456

Compound	z-score
CCN1C(=O)C(CC(=O)NC)N(NC(=O)c2ccccc2)C1=S (stereo not given)	-0.0424
Cc1ccc(S(=O)(=O)n2nc(-c3ccco3)nc2SCc2ccccc2)cc1	0.644
Cc1cc2c(c(=O)o1)C(c1cccs1)C(C#N)=C(N)O2 (stereo not given)	-0.332
COc1cc([N+](=O)[O-])cc(/C=N/NC(=O)C(C)Nc2cccc(C)c2)c1O (stereo not given)	-0.708
COC(=O)c1nc2n(n1)C(c1cccc(Cl)c1)C1=C(CCCC1=O)N2 (stereo not given)	0.113
CCN(CCCNC(=O)C1CCC(=O)N1Cc1ccc(F)cc1)c1cccc(C)c1 (stereo not given)	0.139
COc1cc(C(=O)NC2CCCCC2)ccc1OCc1ccc(Cl)cc1Cl	-0.287
Cc1ccc(-c2csc(N)n2)s1	0.023
CCOC(=O)Nc1ccc2c(c1)N(C(=O)OC)c1ccccc1CC2	-0.356
CCOC(=O)COc1c(OC)cc(Cl)cc1C1NC(=O)NC(C)=C1C(C)=O (stereo not given)	-0.0118
Cc1nc(N)c(C#N)c(-c2ccccc2)c1C	-0.124
COc1ccc(CCNC(=O)C(C(=O)c2ccc(F)cc2)n2ccccc2=O)cc1OC (stereo not given)	-0.63
Cc1ccc(-c2nnc(-c3ccc(Br)cc3)o2)o1	-0.0973
C=CCNC(=S)NNC(=O)c1ccc(OCC)cc1	-0.313
COC(=O)c1cc(OC)c(OC)cc1NC(=O)C(C)c1ccc([N+](=O)[O-])cc1 (stereo not given)	-0.631
COc1cccc(-c2nc(CS(=O)(=O)CC(=O)NCc3ccccc3OC)c(C)o2)c1	0.531
CCCOc1ccc(C(=O)Nc2ccc(Cl)cn2)cc1	-0.115
CCOc1ccc(S(=O)(=O)N2CCN(C(=O)c3cccn3C)CC2)cc1	0.165
CCc1c(C)nc2cc(-c3cccs3)[nH]n2c1=O	-0.282
CCCCC(CCC(=O)NNC(=O)Cc1ccccc1)C(=O)O (stereo not given)	0.00219
Cc1cc(C)n(CCCO)c(=O)c1C#N	0.114
CCN1C=C(Cc2ccc(OC)cc2)C2=C(C1)C(c1ccc(OC)cc1)C(C#N)=C(N)O2 (stereo not given)	-0.119
O=C(CCC(=O)N1CCOCC1)Nc1nnc(C2CCCCC2)s1	0.559
CCCc1nnc2n1N=C(c1ccc(-c3cc(Cl)ccc3Cl)o1)CS2	-0.981

Compound	z-score
CCCCN(CC)C(=O)CN1C(=O)c2ccccc2C1=O	0.0331
O=C(NCCc1ccccn1)c1cc(-c2ccc(Cl)c(Cl)c2Cl)nc2ccccc12	-0.136
Cc1cccc(N2CCN(C(=O)CC(NC(=O)c3ccccc3Cl)c3ccccc3)CC2)c1C (stereo not given)	0.289
CNc1ccc(Br)cc(C(=O)/C=C/c2cc(OC)ccc2OC)c1=O	0.00567
O=C(Nc1ccccc1)c1sc2cc(C(F)(F)F)cnc2c1-c1cccs1	0.0142
Cc1cc(NC(=O)CSc2nc(-c3ccccc3)cs2)no1	-0.516
CC1(C)CC(=O)C2=C(C1)N(Cc1ccco1)C(=O)NC2(C(F)(F)F)C(F)(F)F	-0.404
CSc1nc(-c2ccco2)nn1C(=O)Cc1ccccc1	0.394
Cc1c(-c2nn(C)c(=O)c3ccccc23)oc2ccc(F)cc2c1=O	-0.255
Oc1ccc(-c2nnc(-c3ccc(O)cc3)nn2)cc1	0.485
CCCC1CCC(=NNS(=O)(=O)c2ccc(C)c([N+](=O)[O-])c2)CC1 (stereo not given)	-0.584
O=C(CSc1ccc(Cl)cc1)Nc1ccccc1N1CCN(C(=O)c2ccc(Cl)cc2)CC1	-0.157
CC1(C)CC(=O)C2=C(C1)N(c1ccc(F)cc1)C(=O)CC2c1ccsc1 (stereo not given)	-1.29
CC(=O)c1ccc(N2CCC(c3cc(-c4ccc(Cl)cc4)n[nH]3)CC2)c([N+](=O)[O-])c1	0.126
Cc1sc(-c2ccccn2)nc1OC(=O)c1ccc(Cl)cc1	-0.355
CCc1ccc(-c2nn(-c3cc(Cl)ccc3[N+](=O)[O-])c(=O)c3ccccc23)cc1	0.744
COc1cc(Cl)c(C)cc1NC(=O)CSc1ccc(C)cc1	-0.182
O=C(O)c1ccc(N/N=C/c2ccc(F)c(F)c2)cc1	-0.223
CC(=O)Nc1cccc(OCC(O)Cn2c(C)nc3ccccc32)c1 (stereo not given)	-0.108
CC12CC(c3ccccc3O1)N(C(=O)c1ccco1)C(=S)N2c1ccccc1 (stereo not given)	-0.0857
FC(F)(F)c1cc(-c2cccs2)nc(-n2cc(Cl)cn2)n1	-0.103
COc1ccc(NC(=O)CSc2ccccc2)c(OC)c1	0.185
